# Data from PubChem BioAssay AID485344 (National Center for Advancing Translational Sciences (NCATS), 2010).
# Screen size: about 340,000 compounds; about 6,900 (2%) were called active. No stated cut-off is given here; in the data, active means inhibition above about 30%; inactive means below that, where a call was filed. This is a selection; strong and weak results do not stand in their true shares. Entries without a call were filed so in the source.
# Biological target: D(2) dopamine receptor (Homo sapiens) (UniProt P14416)
# Sequence of UniProt P14416 (P14416 whole entry, looked up): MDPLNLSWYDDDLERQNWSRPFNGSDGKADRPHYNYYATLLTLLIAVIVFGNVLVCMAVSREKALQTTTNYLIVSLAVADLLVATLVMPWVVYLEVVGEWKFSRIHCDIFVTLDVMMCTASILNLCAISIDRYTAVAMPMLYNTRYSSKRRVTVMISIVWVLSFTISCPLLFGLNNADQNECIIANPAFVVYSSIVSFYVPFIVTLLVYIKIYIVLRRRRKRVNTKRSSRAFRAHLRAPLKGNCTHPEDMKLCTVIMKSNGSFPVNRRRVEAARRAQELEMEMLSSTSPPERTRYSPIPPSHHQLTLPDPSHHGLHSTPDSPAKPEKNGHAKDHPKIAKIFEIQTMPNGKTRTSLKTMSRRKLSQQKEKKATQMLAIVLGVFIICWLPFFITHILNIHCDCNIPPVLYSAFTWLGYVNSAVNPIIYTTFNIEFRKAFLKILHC
# Test: HTS Assay for Allosteric Antagonists of the Human D2 Dopamine Receptor: Primary Screen for Antagonists; further: 0% is about no effect
# Settings: HEK293 TREx D2 cells, calcium flux, dopamine EC80; at 10 µM; stronger effect = higher value
# How it was run: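 Inhibition of EC80 dopamine-driven calcium flux, recorded kinetically, defines activity here; cells are a tetracycline-induced HEK293 T-REx line expressing force-coupled D2.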
row,Structure (SMILES),inhibition
1,Cc1ccc(CNS(=O)(=O)c2c(C)nc3scc(C)n3c2=O)cc1,3.34%
2,Cc1ccc(-c2cc(C(=O)Nc3c(C(=O)c4ccccc4)oc4ccccc34)no2)cc1F,-11%
3,Cc1ccc(Cc2nc3ccccc3nc2SCC(=O)Nc2cccc(C(F)(F)F)c2)cc1,6.41%
4,COC(=O)c1cnn(-c2ccc(C(=O)Nc3ccc(C(C)=O)cc3)cc2)c1N,7.25%
5,O=C(CN1CCSc2ccccc21)N1CCN(c2cccc(Cl)c2)CC1,11.3%
6,Cc1ccc(-n2ncc3c(NC4CCCCC4)ncnc32)cc1,16.1%
7,COc1ccc(CC2(CO)CCN(Cc3cnn(-c4ccccc4OC)c3)CC2)cc1,active: 79%
8,CCOc1ccc(CNC(=O)Cn2nc(C)c3nn(-c4ccc(Cl)cc4)c(C)c3c2=O)cc1OC,8.36%
9,C[C@H](NC(=O)N1CCn2c1nc1ccccc12)C(=O)NC1CC1,active: 67.1%
10,CCC(C)NC(=O)c1sc2nc(C)c(C(=O)Nc3ccc(C)cc3C)c(-c3ccc(Cl)cc3)c2c1N (configuration not stated),5.58%
11,COc1ccc(CNCc2c(C(=O)O)c(C)n(Cc3ccc(Cl)cc3)c2C)c(OC)c1,-14.1%
12,CC(=O)c1cc(-c2ccc(F)cc2)n(CCC(=O)Nc2nc3c(C)cccc3s2)c1C,-4.76%
13,Cc1ccc2c(c1)c1c(c(=O)n(-c3ccccc3C)c(=O)n1CC(=O)NCCC1=CCCCC1)n2C,4.36%
14,Cc1nn(CC(=O)NCCc2ccccc2Cl)c(=O)c2nn(-c3ccccc3)c(C)c12,-1.54%
15,O=S(=O)(c1ccccc1)N1CCC(c2ccncc2)CC1,-20.1%
16,COC(=O)C1=CO[C@@H](C)[C@H]2CN3CCc4c([nH]c5ccccc45)[C@@H]3C[C@H]12,active: 71.1%
17,CCc1ccc(NC(=O)c2cc3c(=O)n(Cc4cccs4)ccc3nc2C)cc1,-2.78%
18,COc1ccc(Cl)cc1NC(=O)CN(c1cc(C)cc(C)c1)S(=O)(=O)c1c(C)n[nH]c1C,2.43%
19,COc1cc(-c2noc(C3CC(=O)N(c4ccc5c(c4)OCCO5)C3)n2)cc(OC)c1OC (configuration not stated),-2%
20,O=C(Nc1cc(F)ccc1F)C1COc2ccccc2C1 (configuration not stated),11.6%
21,Cc1ccc(-c2cc(C(=O)O)n(Cc3ccccc3)n2)cc1,-0.0793%
22,Cc1ccc(S(=O)(=O)c2nc(-c3ccccc3)oc2N2CCN(c3ccccc3)CC2)cc1,-1.24%
23,COc1ccc(C(=O)Nc2ccc(-n3nncc3-c3ccc(OC)c(OC)c3)cc2)cc1,-5.18%
24,COc1cccc(OC)c1-c1nn(-c2ncc(C(F)(F)F)cc2Cl)c(=O)o1,active: 37.7%
25,Cc1ccc(-n2c3c(c(=O)[nH]c2=O)C(NC(=O)c2ccccc2F)(C(F)(F)F)C(=O)N3)cc1C (configuration not stated),8.41%

row,Structure (SMILES),inhibition
1,COc1ccc(-c2cc(C(=O)Nc3c(Cl)cccc3Cl)no2)cc1OC,-21.3%
2,CCN(CCCNC(=O)c1cc2c(=O)n(CC)c3ccccc3c2s1)c1cccc(C)c1,-18.5%
3,CCc1ccc(N2CCn3c2nc2c3c(=O)n(Cc3ccc(F)cc3)c(=O)n2C)cc1,18.1%
4,O=C(C[n+]1ccccc1)N/N=C/c1ccccc1Cl,active: 35.9%
5,CCc1ccccc1NC(=O)C1CCCN(S(=O)(=O)c2cccc3nsnc23)C1 (configuration not stated),11.8%
6,COc1ccc(C(=O)N/C(=C\c2cc(OC)c(OC)cc2[N+](=O)[O-])C(=O)NCCO)cc1,active: 38.7%
7,COc1ccc(Nc2cc(C)nc(-n3nc(C)cc3C)n2)cc1Cl,8.97%
8,CCOc1ccc(-c2nc3c(C#N)c[nH]n3c2NC2CCCC2)cc1,19.3%
9,Cc1ccc(C2=Nc3ccccc3NC(c3ccncc3)=N2)cc1,15.1%
10,CCNC(=O)Nc1ccc(-n2nc(C)c(C(=O)OCC)c2C)nc1,active: 45%
11,CNS(=O)(=O)c1cn(CC(=O)Nc2ccc(C)cc2C)cc1S(=O)(=O)NC,-8.03%
12,CCOC(=O)c1cc(-c2ccc(C)cc2)nn1Cc1ccccc1,11%
13,COc1ccc(NS(=O)(=O)c2ccc(NC(=O)N3CCCC3)cc2)cc1,-2.59%
14,Cc1ccc(-c2cn3c(n2)sc2cc(C(=O)NCCCc4ccccc4)ccc23)cc1,-20%
15,Cc1cc(OCCCSc2nc(-c3ccc(C(C)(C)C)cc3)nc3cc(=O)[nH]n23)ccc1Cl,-2.1%
16,CCc1ccc(NC(=O)CSc2ccc3nnc(CCNS(=O)(=O)c4ccc(OC)cc4)n3n2)cc1,-0.851%
17,Cc1ccccc1NC(=O)c1ccccc1NC(=O)c1ccccc1Cl,-14.2%
18,COc1cccc(CNC(=O)CC(c2ccc(F)cc2)N2Cc3ccccc3C2=O)c1 (configuration not stated),1.2%
19,CCc1ccc(NC(=O)C2CCN(c3cc(C)nc4c(-c5ccc(Cl)cc5)c(C)nn34)CC2)cc1,-1.69%
20,CC(C)c1ccc(NC(=O)CCCc2nc(-c3ccc(Cl)cc3)no2)cc1,15.1%
21,COc1cc(Cl)c(NC(=O)C2CCN(S(=O)(=O)c3c(C)noc3/C=C/c3ccccc3F)CC2)c(OC)c1,0.487%
22,CC1CCN(C(=O)Cn2cnc3c2c(=O)n(C)c(=O)n3C)c2ccccc2S1 (configuration not stated),active: 45.2%
23,COc1cc(C2c3c(-c4ccccc4O)n[nH]c3C(=O)N2Cc2ccncc2)ccc1O (configuration not stated),13.3%
24,CCCOc1ccc(NC(=O)CC2C(=O)N(c3ccccc3)C(=O)N2CCC(C)C)cc1 (configuration not stated),-3.89%
25,CN1C(=O)CSc2ccc(NC(=O)NCc3ccccc3)cc21,active: 30.2%

row,Structure (SMILES),inhibition
1,Cc1ccc(CN2CCN(c3ncccn3)CC2)c(C)c1,active: 80%
2,CSc1ccc(CN2CCN(CC=C(C)C)C(CCO)C2)cc1 (configuration not stated),active: 33%
3,Cc1ccc2c(=O)cc(C(=O)Nc3c(C)n(C)n(-c4ccccc4)c3=O)oc2c1C,-13.3%
4,CCC(=O)NC1CC(=O)N(c2ccc3c(c2)OCCO3)C1 (configuration not stated),-11.3%
5,COc1ccccc1NC(=O)Cn1c(=O)n(Cc2ccco2)c(=O)c2oc3ccccc3c21,-1.47%
6,O=C(CN1C(=O)C(c2ccc(F)cc2)=NC12CCCCCC2)Nc1ccc(F)c(Cl)c1,1.64%
7,COc1cc(-c2cc(OC)c3c(C)oc(C)c3c(=O)c2)ccc1OC(=O)c1ccccc1C,-6.49%
8,COC(=O)C(C)Sc1nnc2cc(C)c3cc(C)cc(C)c3n12 (configuration not stated),-19.9%
9,CN(C(=O)c1nc(-c2cccc(F)c2)n2c1CCCCC2)c1ccccc1F,9.93%
10,O=C(CCCn1c(=O)[nH]c2ccccc2c1=O)NCc1ccccc1Cl,-2.87%
11,COc1cccc(NC(=O)CSc2nc3ccc(NC(=O)c4ccco4)cc3s2)c1,-2.01%
12,CN1C(C(=O)NCc2cccc(C(F)(F)F)c2)CC2Cn3c(nc4cc5ccccc5cc43)C21 (configuration not stated),active: 42.6%
13,CCc1nn(CC(=O)NCCCOC)c(=O)c2cc3occc3n12,1.43%
14,Cc1ccc(-c2nnc(Nc3ccc(Br)cc3)c3ccccc23)cc1S(=O)(=O)N1CCCCC1,-6.92%
15,O=C(Cn1cnc2c(nc3n2CCCCC3)c1=O)Nc1ccc(F)cc1,-2.55%
16,CCCN(CCC)CCCNC(=O)Cn1cnc2onc(-c3ccc(F)cc3)c2c1=O,-9.02%
17,C/C(=N\NC(=O)c1cccnc1)c1cc(C)oc1C,active: 33.5%
18,CCN1C(=O)c2cccc3c(S(=O)(=O)Nc4ccc(O)c(C(=O)O)c4)ccc1c23,2.6%
19,CCOc1ccccc1C(=O)N(Cc1ccc(N(C)C)cc1)CC1CCCO1 (configuration not stated),8.96%
20,CC(C)(C)OC(=O)N1CCC(c2c(C(=O)N3CCc4ccccc4C3)cnn2-c2ccc(Cl)cc2)CC1,-2.83%
21,CCS(=O)(=O)Nc1cc(-c2cn3ccc(C)cc3n2)ccc1C,3.8%
22,CCCCNC(=O)CSc1nc2cc3c(cc2c(=O)n1CCCC(=O)NCc1ccc2c(c1)OCO2)OCO3,8.44%
23,Cc1cc(C)cc(C(=O)N2CC(=O)Nc3ccc(C)cc3C2c2ccccc2)c1 (configuration not stated),13.6%
24,COc1ccc(NCc2ccccc2-c2nnc(-c3ccccc3)o2)cc1Cl,-11.9%
25,Cc1cc(NC(c2nnc(-c3ccccc3)o2)c2ccccc2F)ccc1Br (configuration not stated),-7.28%

row,Structure (SMILES),inhibition
1,CCc1cccc2sc(N3CCN(C(=O)C4CC4)CC3)nc12,9.63%
2,Cc1ccc2cccc(NC(=O)c3cccc4ccccc34)c2n1,-3.9%
3,CCN(CC)c1ccc(-c2nc(-c3ccncc3)no2)cc1[N+](=O)[O-],1.31%
4,CCCCN(C(=O)c1cccc(S(=O)(=O)N2CCCCC2)c1)C1CCS(=O)(=O)C1 (configuration not stated),19.2%
5,c1ccc(-c2ccccc2OCCN2CCCC2)cc1,active: 81.9%
6,O=C(Nc1ccc(F)c(Cl)c1)N1CCN2CCCCC2C1 (configuration not stated),2.22%
7,COc1ccc(C2CC(=O)c3c([nH]c(C(=O)OC4CCC(C)CC4)c3C)C2)cc1OC (configuration not stated),3.31%
8,Cc1cccc(-n2c(=O)c3c(c4cc(C)ccc4n3C)n(CC(=O)Nc3ccccc3C(F)(F)F)c2=O)c1,-9.35%
9,c1ccc(C(c2cccs2)c2c[nH]c3ccccc23)cc1 (configuration not stated),-5.45%
10,Cc1ccc(-c2noc(CN(C3CCCCC3)S(=O)(=O)c3ccc(Cl)cc3)n2)cc1,-8.68%
11,Cc1ccc(CNc2ncnc3c2c(-c2ccccc2)cn3-c2cccc(Cl)c2)cc1,6.24%
12,COc1ccccc1Cc1nc2ccccc2nc1SCC(=O)NCCc1ccccc1,-28.4%
13,CCCCN(Cc1ccccc1)S(=O)(=O)c1ccc2c(c1)CC(C)N2C(=O)CC (configuration not stated),23.2%
14,CCN(CC)CCCNC(=O)c1c(C)oc2ncnc(N3CCOCC3)c12,-1.33%
15,CCS(=O)(=O)c1ccccc1C(=O)N(Cc1cccnc1)c1nc2cc(C)c(C)cc2s1,2.96%
16,CN(C(=O)CSc1nc2ccccc2n1CC(=O)NCc1ccc(F)cc1)c1ccc(F)cc1,0.979%
17,CCOC(=O)Cn1cc2c(c1-c1ccc(Cl)cc1)c(=O)n(C)c(=O)n2C,-7.67%
18,CCc1noc2nc(C)n(CC(=O)O)c(=O)c12,0.08%
19,O=c1n(CCCN2CCN(c3cccc(Cl)c3)CC2)nc2ccccn12,active: 52.4%
20,Cc1c(C(=O)NCc2ccc(Cl)cc2)sc2nc3n(c(=O)c12)CCCC3,-11.2%
21,CCOc1ccc(CNC(=O)c2ccc(NC(=O)c3nsc4ccccc34)cc2)cc1,5.34%
22,COC(=O)c1cc2occc2n1CC(=O)Nc1cccc(SC)c1,1.15%
